The record followed here is patent US20220402985A1.

Where “and” joins values, the source holds several entries; their conditions need not be identical. Equal entries are not always repeated. Where only a bound is given, the exact number is not on record here.

Assay [1] deals with ErbB4 on neonatal rat cardiomyocytes (rat) (UniProt Q62956). In words: cell-based or functional assay.
Assay [2] concerns the target ErbB3 on rat Schwann cells (rat) (UniProt Q62799). Nature of the assay: cell-based or functional assay.
UniProt Q62799, sequence (Q62799 20-1339): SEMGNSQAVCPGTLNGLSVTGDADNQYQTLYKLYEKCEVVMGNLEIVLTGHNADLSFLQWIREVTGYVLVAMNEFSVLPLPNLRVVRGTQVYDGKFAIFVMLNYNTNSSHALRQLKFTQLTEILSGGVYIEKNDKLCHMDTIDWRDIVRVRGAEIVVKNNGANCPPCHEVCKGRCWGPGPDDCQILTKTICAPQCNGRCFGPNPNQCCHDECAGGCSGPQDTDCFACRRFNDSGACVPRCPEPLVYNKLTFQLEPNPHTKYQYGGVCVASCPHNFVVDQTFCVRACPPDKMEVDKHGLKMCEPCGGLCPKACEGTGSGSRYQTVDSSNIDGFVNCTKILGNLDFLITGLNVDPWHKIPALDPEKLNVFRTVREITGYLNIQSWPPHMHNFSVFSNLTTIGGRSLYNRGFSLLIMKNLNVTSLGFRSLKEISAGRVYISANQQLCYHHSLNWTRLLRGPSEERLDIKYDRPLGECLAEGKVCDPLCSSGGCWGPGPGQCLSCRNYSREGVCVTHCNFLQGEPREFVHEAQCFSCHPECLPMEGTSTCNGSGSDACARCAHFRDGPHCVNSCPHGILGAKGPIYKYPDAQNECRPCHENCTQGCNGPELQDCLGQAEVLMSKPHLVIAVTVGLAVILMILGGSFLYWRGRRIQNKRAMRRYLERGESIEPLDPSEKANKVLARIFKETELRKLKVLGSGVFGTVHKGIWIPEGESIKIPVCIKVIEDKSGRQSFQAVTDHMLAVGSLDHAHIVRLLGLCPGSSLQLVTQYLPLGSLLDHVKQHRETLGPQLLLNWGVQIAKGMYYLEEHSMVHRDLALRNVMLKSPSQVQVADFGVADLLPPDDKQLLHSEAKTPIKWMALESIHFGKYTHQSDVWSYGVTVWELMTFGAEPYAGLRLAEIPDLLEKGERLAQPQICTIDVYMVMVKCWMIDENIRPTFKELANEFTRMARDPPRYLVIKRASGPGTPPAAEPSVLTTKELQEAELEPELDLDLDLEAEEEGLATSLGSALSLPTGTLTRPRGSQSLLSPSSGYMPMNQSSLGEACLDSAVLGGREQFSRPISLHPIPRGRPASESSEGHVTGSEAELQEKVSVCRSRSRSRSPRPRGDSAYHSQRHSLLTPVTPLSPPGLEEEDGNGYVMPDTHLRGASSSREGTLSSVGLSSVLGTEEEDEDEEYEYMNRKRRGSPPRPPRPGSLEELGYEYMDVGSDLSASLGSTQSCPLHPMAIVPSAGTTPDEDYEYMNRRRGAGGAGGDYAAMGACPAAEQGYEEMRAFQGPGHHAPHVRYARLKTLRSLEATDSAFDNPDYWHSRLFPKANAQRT

UniProt Q62956, sequence (Q62956 26-1308): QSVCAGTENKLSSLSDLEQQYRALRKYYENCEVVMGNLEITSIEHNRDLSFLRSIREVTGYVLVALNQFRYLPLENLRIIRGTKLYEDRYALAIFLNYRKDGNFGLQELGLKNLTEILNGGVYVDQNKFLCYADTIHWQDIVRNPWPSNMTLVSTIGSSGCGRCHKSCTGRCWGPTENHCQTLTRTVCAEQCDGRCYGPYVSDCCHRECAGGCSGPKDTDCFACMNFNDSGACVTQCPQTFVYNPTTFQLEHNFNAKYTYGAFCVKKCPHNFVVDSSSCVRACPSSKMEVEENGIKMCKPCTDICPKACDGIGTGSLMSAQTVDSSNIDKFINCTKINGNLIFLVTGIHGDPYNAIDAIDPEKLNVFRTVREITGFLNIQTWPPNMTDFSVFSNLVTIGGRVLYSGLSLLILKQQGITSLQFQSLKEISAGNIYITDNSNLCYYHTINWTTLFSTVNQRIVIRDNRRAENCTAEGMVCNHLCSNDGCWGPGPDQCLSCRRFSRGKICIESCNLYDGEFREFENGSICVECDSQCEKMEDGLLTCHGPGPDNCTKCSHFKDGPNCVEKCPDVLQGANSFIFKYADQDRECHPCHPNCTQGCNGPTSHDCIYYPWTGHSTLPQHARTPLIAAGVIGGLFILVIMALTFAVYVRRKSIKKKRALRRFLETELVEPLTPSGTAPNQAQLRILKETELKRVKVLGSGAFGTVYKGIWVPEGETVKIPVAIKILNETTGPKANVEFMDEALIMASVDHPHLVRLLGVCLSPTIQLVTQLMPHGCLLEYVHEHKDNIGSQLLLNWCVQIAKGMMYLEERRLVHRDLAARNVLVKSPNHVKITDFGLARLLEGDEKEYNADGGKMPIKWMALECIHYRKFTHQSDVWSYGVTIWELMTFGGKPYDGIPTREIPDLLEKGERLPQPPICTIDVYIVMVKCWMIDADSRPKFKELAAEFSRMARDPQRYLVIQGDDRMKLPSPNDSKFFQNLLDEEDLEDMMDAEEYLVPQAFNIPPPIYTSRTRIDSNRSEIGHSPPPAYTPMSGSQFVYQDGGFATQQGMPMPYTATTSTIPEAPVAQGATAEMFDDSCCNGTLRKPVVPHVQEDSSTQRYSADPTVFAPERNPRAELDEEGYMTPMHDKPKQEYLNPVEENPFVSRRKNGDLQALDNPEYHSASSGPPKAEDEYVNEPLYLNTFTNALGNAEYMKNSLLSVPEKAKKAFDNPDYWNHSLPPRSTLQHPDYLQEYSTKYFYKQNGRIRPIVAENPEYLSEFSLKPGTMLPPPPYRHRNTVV

B1: :huFcSEFL2(desK):G4SG4:huNRG1(S177-Q237)(NRGE1C) (Fc fusion)
chain: [letters of human IgG1 Fc with R292C N297G V302C (EU numbers) not shown]GGGGSGGGGSHLVKCGEKHKSFCVNGGECFMIEGPSNPSRYLCKCPNEFTGDRCQEDFMASFYKAEELYQ[letters of human IgG1 Fc with R292C N297G V302C (EU numbers) not shown]GGGGSGGGGSHLVKCGEKHKSFCVNGGECFMIEGPSNPSRYLCKCPNEFTGDRCQEDFMASFYKAEELYQ
In assay [1], B1 yielded a CM % Agonism AVG of 84.9%, a Cardiomyocyte (CM) (ErbB4) Avg EC50 of 0.11 nM and a Selectivity SC/CM greater than 10000.

B2: :huFcSEFL2(desK):G4SG4:huNRG1(S177-Q237)(NRGE1D) (Fc fusion)
chain: [letters of human IgG1 Fc with R292C N297G V302C (EU numbers) not shown]GGGGSGGGGSHLVKCGESHKSFCVNGGECYMVEGSSIPSRYLCKCPNEFTGDRCQEDFMASFYKAEELYQ[letters of human IgG1 Fc with R292C N297G V302C (EU numbers) not shown]GGGGSGGGGSHLVKCGESHKSFCVNGGECYMVEGSSIPSRYLCKCPNEFTGDRCQEDFMASFYKAEELYQ
With B2, in assay [1], the CM % Agonism AVG was 90.5%, the Cardiomyocyte (CM) (ErbB4) Avg EC50 came to 0.1 nM and the Selectivity SC/CM was greater than 10000.

B3: huNRG1(S177-F229)(NRGE1C)::3x(G4Q)::huFcSEFL2 (Pb) (Fc fusion)
chain: SHLVKCGEKHKSFCVNGGECFMIEGPSNPSRYLCKCPNEFTGDRCQEDFMASFGGGGQGGGGQGGGGQ[letters of human IgG1 Fc with changes not shown]
In assay [2], B3 returned a Schwann cells (SC) (ErbB3) Avg EC50 greater than 10000 nM.

B4: huNRG1(S177-F229)(3H8)::3x(G4Q)::huFcSEFL2 (Pb) (Fc fusion)
chain: SHLVKCGEKHKSFCVNGGECYMVEGSSIPSRYLCKCPNEFTGDRCQEDFMASFGGGGQGGGGQGGGGQ[letters of human IgG1 Fc with changes not shown]
With B4, the Schwann cells (SC) (ErbB3) Avg EC50 in assay [2] was found to be 149 nM.

B5: huNRG1(S177-F229)(NRGE1D)::3x(G4Q)::huFcSEFL2 (Pb) (Fc fusion)
chain: SHLVKCGESHKSFCVNGGECYMVEGSSIPSRYLCKCPNEFTGDRCQEDFMASFGGGGQGGGGQGGGGQ[letters of human IgG1 Fc with changes not shown]
With B5, in assay [2], the Schwann cells (SC) (ErbB3) Avg EC50 was 410 nM and 446 nM.

B6: huNRG1(S177-Q237)(3H8)::3x(G4Q)::huFcSEFL2 (Pb) (Fc fusion)
chain: SHLVKCGEKHKSFCVNGGECYMVEGSSIPSRYLCKCPNEFTGDRCQEDFMASFYKAEELYQGGGGQGGGGQGGGGQ[letters of human IgG1 Fc with changes not shown]
In assay [2], B6 showed a Schwann cells (SC) (ErbB3) Avg EC50 of 100 nM.

B7: huNRG1(S177-Q237)(NRGE1D)::3x(G4Q)::huFcSEFL2 (Pb) (Fc fusion)
chain: SHLVKCGESHKSFCVNGGECYMVEGSSIPSRYLCKCPNEFTGDRCQEDFMASFYKAEELYQGGGGQGGGGQGGGGQ[letters of human IgG1 Fc with changes not shown]
With B7, in assay [2], the Schwann cells (SC) (ErbB3) Avg EC50 is greater than 10000 nM.

B8: huNRG1(S177-F229)(NRGE1C): (G4A)2:G4::huFcSEFL2 (Pb) (Fc fusion)
chain: SHLVKCGEKHKSFCVNGGECFMIEGPSNPSRYLCKCPNEFTGDRCQEDFMASFGGGGAGGGGAGGGG[letters of human IgG1 Fc with R292C N297G V302C (EU numbers) not shown]
In assay [1], B8 displayed a CM % Agonism AVG of 82.7%, a Cardiomyocyte (CM) (ErbB4) Avg EC50 of 0.49 nM and a Selectivity SC/CM greater than 10000. The Schwann cells (SC) (ErbB3) Avg EC50 in assay [2] was greater than 10000 nM.

B9: huNRG1(S177-F229)(NRGE1C) (E47K_D48T_F49S_M50L) huIgG1z SELF2 Fc (Fc fusion)
chain: SHLVKCGEKHKSFCVNGGECFMIEGPSNPSRYLCKCPNEFTGDRCQKTSLASFGGGGEGGGGAGGGG[letters of human IgG1 Fc with R292C N297G V302C (EU numbers) not shown]
In the case of B9, in assay [1], the CM % Agonism AVG worked out at 92.9%, the Cardiomyocyte (CM) (ErbB4) Avg EC50 amounted to 0.25 nM and the Selectivity SC/CM was greater than 10000. This molecule also returned a Schwann cells (SC) (ErbB3) Avg EC50 in assay [2] of 10000 nM.

B10: huNRG1(S177-F229)(NRGE1C) (E47S_D48A_F49L_M50T) huIgG1z SELF2 Fc (Fc fusion)
chain: SHLVKCGEKHKSFCVNGGECFMIEGPSNPSRYLCKCPNEFTGDRCQSALTASFGGGGEGGGGAGGGG[letters of human IgG1 Fc with R292C N297G V302C (EU numbers) not shown]
For B10, in assay [1], the CM % Agonism AVG turned out to be 87.8%, the Cardiomyocyte (CM) (ErbB4) Avg EC50 turned out to be 0.48 nM and the Selectivity SC/CM is greater than 10000. The Schwann cells (SC) (ErbB3) Avg EC50 in assay [2] came out at 10000 nM.

B11: huNRG1(S177-F229)(NRGE1C)((G4E)2)::G4::huFcSEFL2 (Pb) (Fc fusion)
chain: SHLVKCGEKHKSFCVNGGECFMIEGPSNPSRYLCKCPNEFTGDRCQEDFMASFGGGGEGGGGEGGGG[letters of human IgG1 Fc with R292C N297G V302C (EU numbers) not shown]
Consider B11, for which, in assay [1], the CM % Agonism AVG was 81.9% and 88.7%; the Selectivity SC/CM was greater than 10000. The Schwann cells (SC) (ErbB3) Avg EC50 in assay [2] is greater than 10000 nM.

B12: huNRG1(S177-F229)(NRGE1C) (E47A_D48P_F49H_M50I) huIgG1z SELF2 Fc (Fc fusion)
chain: SHLVKCGEKHKSFCVNGGECFMIEGPSNPSRYLCKCPNEFTGDRCQAPHIASFGGGGEGGGGAGGGG[letters of human IgG1 Fc with R292C N297G V302C (EU numbers) not shown]
In assay [1], B12 had a CM % Agonism AVG of 85.8%, a Cardiomyocyte (CM) (ErbB4) Avg EC50 of 0.23 nM and a Selectivity SC/CM greater than 10000. The Schwann cells (SC) (ErbB3) Avg EC50 in assay [2] worked out at 10000 nM.

B13: huNRG1(S177-F229)(NRGE1D) (E47K_D48L_F49D_M50I) huIgG1z SELF2 Fc (Fc fusion)
chain: SHLVKCGESHKSFCVNGGECYMVEGSSIPSRYLCKCPNEFTGDRCQKLDIASFGGGGEGGGGAGGGG[letters of human IgG1 Fc with R292C N297G V302C (EU numbers) not shown]
In the case of B13, in assay [1], the CM % Agonism AVG turned out to be 88.5%, the Cardiomyocyte (CM) (ErbB4) Avg EC50 was 0.15 nM and the Selectivity SC/CM was determined as 62.2. This molecule also registered a Schwann cells (SC) (ErbB3) Avg EC50 in assay [2] of 9.33 nM.

B14: huNRG1(S177-F229)(NRGE1C)(G4E)::G4S::G4::huFcSEFL2 (Pb) (Fc fusion)
chain: SHLVKCGEKHKSFCVNGGECFMIEGPSNPSRYLCKCPNEFTGDRCQEDFMASFGGGGEGGGGSGGGG[letters of human IgG1 Fc with R292C N297G V302C (EU numbers) not shown]
In assay [1], B14 had a CM % Agonism AVG of 82.2%, a Cardiomyocyte (CM) (ErbB4) Avg EC50 of 0.42 nM and a Selectivity SC/CM greater than 10000. The molecule also registered a Schwann cells (SC) (ErbB3) Avg EC50 in assay [2] greater than 10000 nM.

B15: huNRG1(S177-F229)(NRGE1C)::(G4S)2::G4::huFcSEFL2 (Pb) (Fc fusion)
chain: SHLVKCGEKHKSFCVNGGECFMIEGPSNPSRYLCKCPNEFTGDRCQEDFMASFGGGGSGGGGSGGGG[letters of human IgG1 Fc with R292C N297G V302C (EU numbers) not shown]
In assay [1], B15 returned a CM % Agonism AVG of 79.4%, a Cardiomyocyte (CM) (ErbB4) Avg EC50 of 0.62 nM and a Selectivity SC/CM greater than 10000. Further, the Schwann cells (SC) (ErbB3) Avg EC50 in assay [2] was greater than 10000 nM.

B16: huNRG1(S177-F229)(NRGE1C) (E47Q_D48S_M50P) huIgG1z SELF2 Fc (Fc fusion)
chain: SHLVKCGEKHKSFCVNGGECFMIEGPSNPSRYLCKCPNEFTGDRCQQSFPASFGGGGEGGGGAGGGG[letters of human IgG1 Fc with R292C N297G V302C (EU numbers) not shown]
In assay [1], B16 showed a CM % Agonism AVG of 83.2%, a Cardiomyocyte (CM) (ErbB4) Avg EC50 of 0.3 nM and a Selectivity SC/CM greater than 10000. The molecule also showed a Schwann cells (SC) (ErbB3) Avg EC50 in assay [2] of 10000 nM.

B17: huNRG1(S177-F229)(NRGE1C) (E47S_D48T_F49R_M50V) huIgG1z SELF2 Fc (Fc fusion)
chain: SHLVKCGEKHKSFCVNGGECFMIEGPSNPSRYLCKCPNEFTGDRCQSTRVASFGGGGEGGGGAGGGG[letters of human IgG1 Fc with R292C N297G V302C (EU numbers) not shown]
As for B17, in assay [1], the CM % Agonism AVG came to 76%, the Cardiomyocyte (CM) (ErbB4) Avg EC50 was 0.19 nM and the Selectivity SC/CM is greater than 10000. The same molecule came in with a Schwann cells (SC) (ErbB3) Avg EC50 in assay [2] of 10000 nM.

B18: huNRG1(S177-F229)(NRGE1C) huIgG1z SELF2 Fc (Fc fusion)
chain: SHLVKCGEKHKSFCVNGGECFMIEGPSNPSRYLCKCPNEFTGDRCQEDFMASFGGGGEGGGGAGGGG[letters of human IgG1 Fc with R292C N297G V302C (EU numbers) not shown]
For the molecule B18, in assay [1], the CM % Agonism AVG was 77.2%, the Cardiomyocyte (CM) (ErbB4) Avg EC50 amounted to 0.28 nM and the Selectivity SC/CM is greater than 10000. The molecule further came in with a Schwann cells (SC) (ErbB3) Avg EC50 in assay [2] of 10000 nM.

B19: :huFcSEFL2(desK):G4SG4:huNRG1(S177-F229)(NRGE1C) (Fc fusion)
chain: [letters of human IgG1 Fc with R292C N297G V302C (EU numbers) not shown]GGGGSGGGGSHLVKCGEKHKSFCVNGGECFMIEGPSNPSRYLCKCPNEFTGDRCQEDFMASF[letters of human IgG1 Fc with R292C N297G V302C (EU numbers) not shown]GGGGSGGGGSHLVKCGEKHKSFCVNGGECFMIEGPSNPSRYLCKCPNEFTGDRCQEDFMASF
Consider B19, for which, in assay [1], the CM % Agonism AVG was determined as 71.8%, the Cardiomyocyte (CM) (ErbB4) Avg EC50 was 0.29 nM and the Selectivity SC/CM was greater than 10000.

B20: :huFcSEFL2(desK):G4SG4:huNRG1(S177-F229)(NRGE1D) (Fc fusion)
chain: [letters of human IgG1 Fc with R292C N297G V302C (EU numbers) not shown]GGGGSGGGGSHLVKCGESHKSFCVNGGECYMVEGSSIPSRYLCKCPNEFTGDRCQEDFMASF[letters of human IgG1 Fc with R292C N297G V302C (EU numbers) not shown]GGGGSGGGGSHLVKCGESHKSFCVNGGECYMVEGSSIPSRYLCKCPNEFTGDRCQEDFMASF
With B20, in assay [1], the CM % Agonism AVG came out at 76.2%, the Cardiomyocyte (CM) (ErbB4) Avg EC50 came to 0.23 nM and the Selectivity SC/CM was greater than 10000.

B21: huNRG1(S177-S228)(3H8)::3x(G4Q)::huFcSEFL2 (Pb) (Fc fusion)
chain: SHLVKCGEKHKSFCVNGGECYMVEGSSIPSRYLCKCPNEFTGDRCQEDFMASGGGGQGGGGQGGGGQ[letters of human IgG1 Fc with changes not shown]
B21 registered a Schwann cells (SC) (ErbB3) Avg EC50 in assay [2] of 27.7 nM.

B22: huNRG1(S177-S228)(NRGE1D)::3x(G4Q)::huFcSEFL2 (Pb) (Fc fusion)
chain: SHLVKCGESHKSFCVNGGECYMVEGSSIPSRYLCKCPNEFTGDRCQEDFMASGGGGQGGGGQGGGGQ[letters of human IgG1 Fc with changes not shown]
Take B22: the Schwann cells (SC) (ErbB3) Avg EC50 in assay [2] is greater than 10000 nM.
